# Test results published in publication PMC4336329 (PLoS ONE, 2015).
# Among all 310,000 compounds or so, about 2,200 (0.71%) showed an effect of 50% or more. The effect is printed as a negative number. The list shows a part of the results.
# Molecular target: human ether-à-go-go-related gene (hERG) potassium channel (human, UniProt Q12809)
# Test: primary screen, population patch clamp on CHO cells stably expressing hERG
# human ether-à-go-go-related gene (hERG) potassium channel, sequence (Q12809 whole entry, looked up): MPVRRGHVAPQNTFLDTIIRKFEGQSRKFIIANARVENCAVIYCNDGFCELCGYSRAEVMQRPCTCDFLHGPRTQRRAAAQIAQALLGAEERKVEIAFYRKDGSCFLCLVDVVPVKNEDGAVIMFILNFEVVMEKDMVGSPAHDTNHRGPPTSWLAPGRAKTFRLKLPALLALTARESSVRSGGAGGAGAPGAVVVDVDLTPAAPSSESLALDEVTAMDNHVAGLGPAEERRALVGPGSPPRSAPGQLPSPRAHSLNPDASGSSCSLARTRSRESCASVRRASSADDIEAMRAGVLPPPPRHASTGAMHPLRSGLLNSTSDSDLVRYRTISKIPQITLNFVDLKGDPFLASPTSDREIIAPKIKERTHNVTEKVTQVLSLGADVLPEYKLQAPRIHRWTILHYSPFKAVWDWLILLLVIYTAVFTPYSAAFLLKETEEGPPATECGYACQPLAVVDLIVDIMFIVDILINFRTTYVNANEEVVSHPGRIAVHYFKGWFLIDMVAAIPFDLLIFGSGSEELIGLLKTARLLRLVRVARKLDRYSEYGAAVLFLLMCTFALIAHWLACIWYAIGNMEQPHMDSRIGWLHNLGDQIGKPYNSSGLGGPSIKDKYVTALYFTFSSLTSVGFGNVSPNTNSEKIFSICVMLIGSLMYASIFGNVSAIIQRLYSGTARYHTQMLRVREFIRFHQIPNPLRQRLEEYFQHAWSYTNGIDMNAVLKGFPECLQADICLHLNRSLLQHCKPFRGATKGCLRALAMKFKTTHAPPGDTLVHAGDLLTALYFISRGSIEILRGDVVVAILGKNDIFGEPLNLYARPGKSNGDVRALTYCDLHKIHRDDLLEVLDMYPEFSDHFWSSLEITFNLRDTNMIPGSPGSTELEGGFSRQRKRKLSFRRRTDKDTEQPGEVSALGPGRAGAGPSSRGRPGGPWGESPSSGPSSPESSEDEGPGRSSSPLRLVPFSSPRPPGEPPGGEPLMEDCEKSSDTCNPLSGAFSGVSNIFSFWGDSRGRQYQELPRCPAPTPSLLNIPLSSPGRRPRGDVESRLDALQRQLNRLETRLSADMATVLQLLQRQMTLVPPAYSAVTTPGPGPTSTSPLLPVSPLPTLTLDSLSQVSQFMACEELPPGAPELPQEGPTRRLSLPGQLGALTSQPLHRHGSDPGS
row,Compound,"hERG current change (%, negative = inhibition) at 1uM [%]"
1,Cc1ccc(S(=O)(=O)N(C)CC(=O)OCC(=O)N2CC(=O)Nc3ccccc32)cc1,7.82
2,COc1ccc(C(=O)C2CCCN(Cc3c[nH]c4ccccc34)C2)c(OC)c1 (stereo not drawn),-58.8
3,C=CCn1c(SCC(=O)c2ccc(O)c(O)c2)nnc1-c1cccc(C)c1,3.5
4,CCOn1c(=O)c(-c2ccc(Cl)cc2)[n+]([O-])c2ccccc21,14.2
5,OCC1CCN(Cc2nc(Cc3ccccc3Cl)no2)CC1,12.1
6,COc1cccc(N(C(=O)c2ccco2)C(C(=O)NC2CCCC2)c2ccc(N(C)C)cc2)c1 (stereo not drawn),14.2
7,COc1cccc(CNc2cc(C)ccn2)c1O,9.35
8,Cc1cc(=O)[nH]c(SCCCOc2ccc3c(c2)CCC3)n1,3.45
9,CCOc1ccc(N2CC(C(=O)Nc3nnc(Cc4ccc(OC)c(OC)c4)s3)CC2=O)cc1 (stereo not drawn),0.249
10,COc1ccc(CCN(Cc2nc(-c3ccccc3)no2)Cc2nc(-c3ccccc3)no2)cc1OC,-5.19
11,CC1CN(C(=S)Nc2ccc(Cl)cc2)CC(C)O1 (stereo not drawn),16.9
12,COc1cccc(CN(C)Cc2cc(=O)oc3cc(O)c(Cl)cc23)c1.O=C(O)C(=O)O,11.4
13,COC(=O)c1ccc(COc2ccccc2/C=C(\C#N)C(=O)Nc2c(C)cc(C)cc2C)cc1,15
14,Cc1nc2scc(-c3ccco3)c2c(=O)n1/N=C/N(C)C,5.8
15,Cc1cc(C)cc(NC(=S)NCc2ccc3c(c2)OCO3)c1,7.12
16,CN1C(c2ccc(F)cc2)=CS/C1=C(\C#N)c1nnc2n1-c1ccccc1SC2,-6.05
17,Cc1cc(NC(=NC2CC2)c2ccccc2)n(-c2ccccc2)n1,9.3
18,COc1ccccc1CNC(=O)c1ccccc1C(=O)NC(CC(C)C)C(=O)NCc1ccccc1OC (stereo not drawn),12.1
19,Cc1cccc(-c2c3c(=O)n(C)c(=O)n(C)c3cn2CCO)c1,3.7
20,Cc1ccc(NC(=O)CN(C)C(=O)Nc2ccc(C)cc2)cc1,14.7
21,CN(C)c1ccc(/C=N/n2c(C3CCCCC3)n[nH]c2=S)cc1,15.7
22,CC(=O)/C(CN1CCCCC1)=N\O.Cl,12.6
23,CC(C)CN(CC(C)C)C(=O)Nc1ccccc1F,5.73
24,COc1ccc(NC(=S)N(CCCN2CCCC2)Cc2cccs2)cc1,-7.06
